Assay: soluble on expression in E. coli; label from the status in PepcDB or PDB records

Row | Sequence | soluble on expression in E. coli
1 | MSLKRAFILVLDSFGIGATADAQAFGDVGSDTLGHIADQCAQGLADNAERKGALQLPNLSKLGLAMAHKESTGRFAPGLDERADIIGAYAHAAELSSGKDTPSGHWEIAGVPVLFEWGYFSDKQNSFPKELTDRILARAGLDGFLGNCHASGTQVLDDLGEEHMRTGKPIFYTSADSVFQIACHEETFGLDRLLELCQIAREELADYNIGRVIARPFVGPGKGQFARTGNRRDLSVEPPSATVLQKLVEEKQGRVVSIGKIADIYAYCGITDKVKATGIPDLFEATLEQIKQAGDNTIVFTNFVDFDSAYGHRRDVAGYAAALEYFDKRLPEVLELMQEDDILILTADHGCDPTWPGTDHTREHIPVLVYGKKVAPGSLGRRDTFADIGQTLASYFGTSPMDYGKNFLEGHHHHHH | not soluble
2 | MSLSSTVSTLYGEVEPSLLEIAKQIKLLICDVDGVFSDGLIYMGNQGEELKTFHTRDGYGVKALMNAGIEIAIITGRRSQIVENRMKALGISLIYQGQDDKVQAYYDICQKLAIAPEQTGYIGDDLIDWPVMEKVALRVCVADGHPLLAQRANYVTHIKGGHGAVREVCDLILQARNELDVHKGLSLEGHHHHHH | soluble

Source: the DeepSol protein solubility set
